# Laboratory results reported in patent publication US9234216B2, “Variant CBH I polypeptides” (BP Corporation North America Inc., priority 2011, dated 2016).
# B1: SEQ ID 95, 96: BD29555 CBH I entry site variant: Y31L, T32Q, S72A, T73Q, T77D, F120-VTGSNVG-S128 → F120-VQQGPYSKNVG-S132 (protein)
# chain: MSALNSFNMYKSALILGSLLATAGAQQIGTLQAETHPSLSWSTCKSGGSCTTNSGAITLDANWRWVHGVNTAQNCYDGNTWNTAICDTDASCAQDCALDGADYSGTYGITTSGNSLRLNFVQQGPYSKNVGSRTYLMADNTHYQIFDLLNQEFTFTVDVSHLPCGLNGALYFVTMDADGGVSKYPNNKAGAQYGVGYCDSQCPRDLKFIAGQANVEGWTPSSNNANTGLGNHGACCAELDIWEANSISEALTPHPCDTPGLSVCTTDACGGTYSSDRYAGTCDPDGCDFNPYRLGVTDFYGSGKTVDTTKPITVVTQFVTDDGTSTGTLSEIRRYYVQNGVVIPQPSSKISGVSGNVINSDFCDAEISTFGETASFSKHGGLAKMGAGMEAGMVLVMSLWDDYSVNMLWLDSTYPTNATGTPGAARGSCPTTSGDPKTVESQSGSSYVTFSDIRVGPFNSTFSGGSSTGGSSTTTASGTTTTKASSTSTSSTSTGTGVAAHWGQCGGQGWTGPTTCASGTTCTVVNPYYSQCL
# modifications: loop F120-S128 replaced by VQQGPYSKNVG
# notes: BD29555 CBH I entry site variant: Y31L, T32Q, S72A, T73Q, T77D, F120-VTGSNVG-S128 → F120-…-S132
# B2: SEQ ID 99, 100: BD29555 CBH I entry site variant: S72Y, T73Q, F120-VTGSNVG-S128 → F120-VQQGPYSKNVG-S132 (protein)
# chain: MSALNSFNMYKSALILGSLLATAGAQQIGTYTAETHPSLSWSTCKSGGSCTTNSGAITLDANWRWVHGVNTYQNCYTGNTWNTAICDTDASCAQDCALDGADYSGTYGITTSGNSLRLNFVQQGPYSKNVGSRTYLMADNTHYQIFDLLNQEFTFTVDVSHLPCGLNGALYFVTMDADGGVSKYPNNKAGAQYGVGYCDSQCPRDLKFIAGQANVEGWTPSSNNANTGLGNHGACCAELDIWEANSISEALTPHPCDTPGLSVCTTDACGGTYSSDRYAGTCDPDGCDFNPYRLGVTDFYGSGKTVDTTKPITVVTQFVTDDGTSTGTLSEIRRYYVQNGVVIPQPSSKISGVSGNVINSDFCDAEISTFGETASFSKHGGLAKMGAGMEAGMVLVMSLWDDYSVNMLWLDSTYPTNATGTPGAARGSCPTTSGDPKTVESQSGSSYVTFSDIRVGPFNSTFSGGSSTGGSSTTTASGTTTTKASSTSTSSTSTGTGVAAHWGQCGGQGWTGPTTCASGTTCTVVNPYYSQCL
# modifications: loop F120-S128 replaced by VQQGPYSKNVG
# notes: BD29555 CBH I entry site variant: S72Y, T73Q, F120-VTGSNVG-S128 → F120-…-S132
# B3: SEQ ID 97, 98: BD29555 CBH I entry site variant: Y31L, S72W, T77D, F120-VTGSNVG-S128 → F120-VQQGPYSKNVG-S132 (protein)
# chain: MSALNSFNMYKSALILGSLLATAGAQQIGTLTAETHPSLSWSTCKSGGSCTTNSGAITLDANWRWVHGVNTWTNCYDGNTWNTAICDTDASCAQDCALDGADYSGTYGITTSGNSLRLNFVQQGPYSKNVGSRTYLMADNTHYQIFDLLNQEFTFTVDVSHLPCGLNGALYFVTMDADGGVSKYPNNKAGAQYGVGYCDSQCPRDLKFIAGQANVEGWTPSSNNANTGLGNHGACCAELDIWEANSISEALTPHPCDTPGLSVCTTDACGGTYSSDRYAGTCDPDGCDFNPYRLGVTDFYGSGKTVDTTKPITVVTQFVTDDGTSTGTLSEIRRYYVQNGVVIPQPSSKISGVSGNVINSDFCDAEISTFGETASFSKHGGLAKMGAGMEAGMVLVMSLWDDYSVNMLWLDSTYPTNATGTPGAARGSCPTTSGDPKTVESQSGSSYVTFSDIRVGPFNSTFSGGSSTGGSSTTTASGTTTTKASSTSTSSTSTGTGVAAHWGQCGGQGWTGPTTCASGTTCTVVNPYYSQCL
# modifications: loop F120-S128 replaced by VQQGPYSKNVG
# notes: BD29555 CBH I entry site variant: Y31L, S72W, T77D, F120-VTGSNVG-S128 → F120-…-S132
# Experiment: Saccharification of pretreated bagasse by CBHI variants in a cocktail with CBHII and EG
# Assay type: biochemical
# Details: Table 6; for % improvement over WT @ 48 hr: 5% w/v pretreated bagasse, 35° C., pH5.2, CBHI 4 mg/g cellulose
# Description: CBHI variants shown in Tables 1 and 5 were assayed under the following conditions: • 5% w/v pretreated bagasse (62.07% cellulose) • 35° C., 300 rpm shaking with 2 BBs per r×n • pH5.2 • 1 mM Sodium Azide • 5 ml total volume • Enzyme Dosing Overview:
# • Time point: T=0, 48 hours • Time point (for Point Mutant Recombinants): T=0, 72 hours • % improvement over wt=(% conversion of variant−% conversion of wt)/ • % conversion of wt Results of these assays are shown in Tables 2 and 6. • CBHI variants shown in Table 3 were assayed under the following conditions: […]
Molecule,% improvement over WT @ 48 hr,Dose Reduction (method not described)
B1,10.3%,
B2,6.7%,0.5X
B3,8.5%,
